Measured values from PubChem BioAssay AID493208 (National Center for Advancing Translational Sciences (NCATS), 2011).
About 340 (0.77%) of roughly 44,000 compounds were called active. About 5% were inconclusive and are not listed. Calls follow the shape of the dose curve; as a rule, active = well fitted inhibition curve with a large enough effect; inconclusive = small, poorly fitted or top-dose-only effect; inactive = flat fitted curve, though single readings scatter. The list shows a part of the results.

experiment: Acumen qHTS Assay for Inhibitors of the mTORC1 Signaling Pathway in MEF (Tsc2-/-, p53-/-) Cells: Sytravon; conditions: phospho-rpS6 immunofluorescence/PI, 24 h; series mostly up to 38.3 µM; activity change, negative = inhibition: at the top concentration; also: nearly all actives have a fitted effect of over 50% in size;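 as to activity change, negative = inhibition: plate controls were DMSO for no effect and rapamycin for full effect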
Procedure, shortened: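 Plate MEFs (Tsc2-/-, p53-/-, empty vector) in DMEM/10% FBS; after 24 h add compound, incubate 24 h at 37 degree Celsius; fix in PFA/TX-100, block, stain phospho-rpS6 and 10 uM PI; scan at 488 nm; report % positive cells.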
Potency is read from the fitted curve at half-maximal effect.

| Compound | activity change, negative = inhibition | Potency |
| --- | --- | --- |
| COc1ccc(C2=C(C)C(=NCCCN3CCN(c4cc(Cl)ccc4C)CC3)NS2(=O)=O)cc1 | inactive: 2.13% |  |
| O=C(NCc1ccccc1Br)c1ccc2c(c1)nc1n2CCOC1 | inactive: 0.835% |  |
| Cn1c(-c2ccccc2)cnc1NCc1ccccc1O | inactive: -16.9% |  |
| CCCNC(=O)COCc1cc(-c2ccc(F)cc2)on1 | inactive: 0.601% |  |
| O=C(CCC1N=C2c3ccccc3N=C(SCc3ccccc3F)N2C1=O)NCc1ccccc1 (stereo not drawn) | inactive: 0.866% |  |
| Cc1ccc2nc(N3CCN(c4ccccc4F)CC3)c3nnnn3c2c1 | inactive: -9.17% |  |
| COc1ccc(CC(=O)NCc2ccc3c(c2)CCN3C(=O)c2cccc(C)c2)cc1 | inactive: -12.7% |  |
| Cc1ccc(-n2cnc3cc(C(=O)NCc4ccccc4Cl)ccc32)c(C)c1 | inactive: 0% |  |
| CCCOc1cccc(C2c3c(oc4ccc(F)cc4c3=O)C(=O)N2Cc2ccc3c(c2)OCO3)c1 (stereo not drawn) | inactive: 0.483% |  |
| Cc1nc(-n2nc(C)c(Cc3ccc4c(c3)OCO4)c2C)sc1C(=O)Nc1ccc(Cl)cc1 | inactive: -2.1% |  |
| Cc1cccc(Cn2cccc2CNS(=O)(=O)c2ccc(C)c(C)c2)c1 | inactive: 9.04% |  |
| CN1CCSc2ccc(C(=O)NCc3ccccc3)cc21 | inactive: -5.21% |  |
| CCCCN(Cc1ccco1)C(=O)Cn1ncc2c([nH]c3ccccc32)c1=O | inactive: -0.599% |  |
| O=C(c1ccco1)n1nc(-c2ccc(Cl)cc2)nc1NCc1ccc(F)cc1 | inactive: 0.735% |  |
| COc1ccc(C2C(C(=O)Nc3ccccc3)=C(C)Nc3nc(-c4ccccc4Cl)nn32)cc1OC (stereo not drawn) | inactive: -1.82% |  |
| CCOCCCNc1nc2cc(OC)c(OC)cc2c2nc(-c3ccccc3)nn12 | inactive: 0.363% |  |
| Cc1ccc(NC(=O)Cn2c(=O)n(CCC(=O)NCc3ccccc3Cl)c(=O)c3ccccc32)c(C)c1 | inactive: -3.68% |  |
| Cc1cccc(NS(=O)(=O)c2ccc3nc(-c4ccccc4)[nH]c3c2)c1C | inactive: 1.16% |  |
| CCOC(=O)c1scc(-c2ccc(C)cc2)c1S(=O)(=O)Nc1ccc(OC)c(Cl)c1 | inactive: -8.51% |  |
| O=C(Nc1ccc2nc(SCCOc3ccccc3)sc2c1)c1ccc2c(c1)OCO2 | inactive: -2.47% |  |
| Clc1ccccc1Nc1ncnc2c1nc1n2CCCCC1 | inactive: -11.8% |  |
| COc1cc2[nH]c(=O)n(CCCCCC(=O)N3CCN(c4ccc(Cl)cc4)CC3)c(=O)c2cc1OC | inactive: -7.86% |  |
| Cc1cccc(Cn2c(=O)n(CC3CCC(C(=O)N4CCC(C)CC4)CC3)c(=O)c3sccc32)c1 (stereo not drawn) | inactive: -2.97% |  |
| O=C(CSc1cn(CC(=O)N2CCCC2)c2ccccc12)Nc1ccccc1C(F)(F)F | inactive: -3.61% |  |

| Compound | activity change, negative = inhibition | Potency |
| --- | --- | --- |
| Cc1nc2cc(-c3ccccc3)nn2c(C)c1CCC(=O)NCc1cccc(Cl)c1 | inactive: -11.5% |  |
| Cc1ccc(CNC(=O)CN(c2cc(C)cc(C)c2)S(=O)(=O)c2c(C)noc2C)cc1 | inactive: -17.2% |  |
| Cc1nc2ccn(Cc3cccs3)c(=O)c2cc1C(=O)N1CCN(c2ccccc2)CC1 | inactive: -14.5% |  |
| COC(=O)c1ccccc1NC(=O)c1ccc2c(Cl)c3c(nc2c1)CCCC3 | inactive: -0.411% |  |
| CCOC(=O)Cc1ccc(NC(=O)N2CC(C)Oc3ccc(Cl)cc32)cc1 (stereo not drawn) | inactive: -0.0602% |  |
| COc1ccc2c(c1)cc1c(=O)n(CC(=O)NCCc3ccccc3)nc(C)n12 | inactive: -0.647% |  |
| COc1cc2nc(NCc3ccccc3)n3nc(-c4ccccc4)nc3c2cc1OC | inactive: -0.0113% |  |
| O=C(Nc1cccc(Br)c1)c1cc(-c2ccc3c(c2)OCCO3)on1 | inactive: -3.26% |  |
| Cc1ccccc1CNCCSc1nnnn1-c1ccccc1 | inactive: 2.63% |  |
| CCOC(=O)N1CCN(Cc2nc3cc(NC(=O)c4ccccc4OC)ccc3n2C(C)C)CC1 | inactive: -16.7% |  |
| Cc1ccc2c(c1)N(S(=O)(=O)c1ccc3c(c1)NC(=O)CC(=O)N3)CCO2 | inactive: 0.26% |  |
| Cc1ccc2c(c1)N(CC(=O)NCCCN1CCCCC1C)C(=O)c1cccnc1O2 (stereo not drawn) | inactive: 0% |  |
| COc1ccc(-n2c(=O)c3ccc(C(=O)NCc4ccc(C)cc4)cc3n(Cc3ccc(C)cc3)c2=O)cc1 | inactive: 1.31% |  |
| COc1ccc(CNC(=O)CCc2c(C)c3cc4c(C)coc4cc3oc2=O)cc1 | inactive: 0.167% |  |
| COc1ccc(CNC(=O)c2nc(S(=O)(=O)Cc3ccccc3)ncc2Cl)cc1 |  | active: 20.7 µM |
| Cc1ccc(-n2nc3c(=O)n(CC(=O)NCc4ccco4)nc(C)c3c2C)cc1 | inactive: -2.57% |  |
| Cc1nc2nc(SCC(=O)N(Cc3ccccc3)C(C)C)nn2c(C)c1Cc1ccccc1Cl | inactive: 5.98% |  |
| CSc1ccc(CCNc2ncnc3onc(-c4ccc(Cl)cc4)c23)cc1 | inactive: -7.47% |  |
| Cc1cc(C)c2sc(N3CCN(C(=O)C4CC4)CC3)nc2c1 | inactive: -5.12% |  |
| CCc1ccc2ncc3c(-c4ccc(C)cc4)nn(CC(=O)Nc4ccc(C)cc4)c3c2c1 | inactive: 0% |  |
| Cc1cc(C)c(NC(=O)Cn2c(=O)n(-c3ccc(F)cc3)c(=O)c3c(C)c(C(=O)N(C)C)sc32)c(C)c1 | inactive: 3.56% |  |
| COc1ccc(C(=O)c2sc(Nc3cc(Cl)ccc3C)nc2N)cc1OC | inactive: -7.53% |  |
| COC(=O)c1cc2occc2n1Cc1nc(-c2cccc(Br)c2)oc1C | inactive: 0.0695% |  |
| CCOC(=O)c1ccc(NC(=O)CC2C(=O)N(c3ccc(F)cc3)C(=O)N2Cc2ccc(C)cc2)cc1 (stereo not drawn) | inactive: 2.79% |  |
